Our source for the binding signal values is publication PMC12820563, “FoxP3 forms a head-to-head dimer in vivo and stabilizes its multimerization on adjacent microsatellites”.

Some of the results follow.

This experiment deals with T1, MBP-FoxP1dN (Mus musculus, UniProt P58462 326-579).
T1 sequence: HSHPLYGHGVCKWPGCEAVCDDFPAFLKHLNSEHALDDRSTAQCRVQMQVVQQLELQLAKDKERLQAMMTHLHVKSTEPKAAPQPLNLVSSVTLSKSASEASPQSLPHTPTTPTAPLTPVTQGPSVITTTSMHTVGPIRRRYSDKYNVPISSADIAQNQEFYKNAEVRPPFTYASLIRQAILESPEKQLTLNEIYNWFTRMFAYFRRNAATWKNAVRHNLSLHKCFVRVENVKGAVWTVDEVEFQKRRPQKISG
In words: PD-seq (MBP pull-down with sequencing); 20 mM Tris-HCl pH 7.5, 100 mM NaCl, 1.5 mM MgCl2, 0.4 uM protein, 0.1 uM dsDNA library, 30 min, room temperature, amylose pull-down; high values mean tight binding. The conditions noted are these: protein: recombinant; tags: His6-MBP; chain copies: 2; dsDNA, one strand shown. In a few lines: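 A degenerate double-stranded DNA library, filled in with Klenow, was added at 0.1 µM to 0.4 µM His6-MBP-tagged mouse FoxP3 or FoxP1 fragment lacking the N-terminus, expressed in E. coli. Incubation lasted 30 min at room temperature in Tris pH 7.5 buffer with NaCl and MgCl2, after which complexes were collected on amylose resin, washed three times, digested with proteinase K to free the DNA, barcoded by PCR and sequenced by Illumina. Binding is the pooled-replicate reads-per-million enrichment of pull-down over input.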
In the case of “GATGATTGTTCTCCCAGCTGATGAATTCTCTACATCGAGTAAACAAATTTTCCTAATCTTTCTGTTCAAGCGCCATCTAC”, the binding signal was 0.988 RPM ratio (pull-down/input).

Consider “GATGATTGTTCTCCCAGCTGATGAATTTAGTGTATCGAGTAAACAAATTTTCCTAATCTTTCTGTTCAAGCGCCATCTAC”, for which the binding signal was 1.33 RPM ratio (pull-down/input). “GATGATTGTTCTCCCAGCTGATGAATTCAGCAAGTCGAGTAAACAAATTTTCCTAATCTTTCTGTTCAAGCGCCATCTAC”: the binding signal was 0.853 RPM ratio (pull-down/input).

“GATGATTGTTCTCCCAGCTGATGAATTCGTAGTTTCGAGTAAACAAATTTTCCTAATCTTTCTGTTCAAGCGCCATCTAC”: the binding signal is 0.913 RPM ratio (pull-down/input). In the case of “GATGATTGTTCTCCCAGCTGATGAATTAGGTGGATCGAGTAAACAAATTTTCCTAATCTTTCTGTTCAAGCGCCATCTAC”, the binding signal is 0.865 RPM ratio (pull-down/input). With “GATGATTGTTCTCCCAGCTGATGAATTGACAAATTCGAGTAAACAAATTTTCCTAATCTTTCTGTTCAAGCGCCATCTAC”, the binding signal is 1.53 RPM ratio (pull-down/input).

For the sequence “GATGATTGTTCTCCCAGCTGATGAATTCAAATAGTCGAGTAAACAAATTTTCCTAATCTTTCTGTTCAAGCGCCATCTAC”, the binding signal was 0.874 RPM ratio (pull-down/input). The result for “GATGATTGTTCTCCCAGCTGATGAATTAAAATTGTCGAGTAAACAAATTTTCCTAATCTTTCTGTTCAAGCGCCATCTAC” reads 0.999 RPM ratio (pull-down/input); that for “GATGATTGTTCTCCCAGCTGATGAATTTGGTACCTCGAGTAAACAAATTTTCCTAATCTTTCTGTTCAAGCGCCATCTAC”, 0.878 RPM ratio (pull-down/input); that for “GATGATTGTTCTCCCAGCTGATGAATTGACCGTGTCGAGTAAACAAATTTTCCTAATCTTTCTGTTCAAGCGCCATCTAC”, 0.91 RPM ratio (pull-down/input).

Take “GATGATTGTTCTCCCAGCTGATGAATTAAACGCGTCGAGTAAACAAATTTTCCTAATCTTTCTGTTCAAGCGCCATCTAC”: the binding signal was 1.07 RPM ratio (pull-down/input). Turning to “GATGATTGTTCTCCCAGCTGATGAATTAGACTCTTCGAGTAAACAAATTTTCCTAATCTTTCTGTTCAAGCGCCATCTAC”, the binding signal was 0.952 RPM ratio (pull-down/input). As to “GATGATTGTTCTCCCAGCTGATGAATTTTGCATGTCGAGTAAACAAATTTTCCTAATCTTTCTGTTCAAGCGCCATCTAC”, the binding signal was 1.14 RPM ratio (pull-down/input). The result for “GATGATTGTTCTCCCAGCTGATGAATTTACCTTCTCGAGTAAACAAATTTTCCTAATCTTTCTGTTCAAGCGCCATCTAC” reads 1.15 RPM ratio (pull-down/input); that for “GATGATTGTTCTCCCAGCTGATGAATTGCCTCCATCGAGTAAACAAATTTTCCTAATCTTTCTGTTCAAGCGCCATCTAC”, 1 RPM ratio (pull-down/input). On to “GATGATTGTTCTCCCAGCTGATGAATTACCTGCTTCGAGTAAACAAATTTTCCTAATCTTTCTGTTCAAGCGCCATCTAC”, for which the binding signal was 0.939 RPM ratio (pull-down/input). For the sequence “GATGATTGTTCTCCCAGCTGATGAATTGGGGATCTCGAGTAAACAAATTTTCCTAATCTTTCTGTTCAAGCGCCATCTAC”, the binding signal is 0.788 RPM ratio (pull-down/input). For the sequence “GATGATTGTTCTCCCAGCTGATGAATTCACTAGGTCGAGTAAACAAATTTTCCTAATCTTTCTGTTCAAGCGCCATCTAC”, the binding signal is 0.888 RPM ratio (pull-down/input). The result for “GATGATTGTTCTCCCAGCTGATGAATTGATACACTCGAGTAAACAAATTTTCCTAATCTTTCTGTTCAAGCGCCATCTAC” reads 1.34 RPM ratio (pull-down/input). Take “GATGATTGTTCTCCCAGCTGATGAATTTTAAGCATCGAGTAAACAAATTTTCCTAATCTTTCTGTTCAAGCGCCATCTAC”: the binding signal is 1.08 RPM ratio (pull-down/input). In the case of “GATGATTGTTCTCCCAGCTGATGAATTCTCACTATCGAGTAAACAAATTTTCCTAATCTTTCTGTTCAAGCGCCATCTAC”, the binding signal is 1.02 RPM ratio (pull-down/input). To “GATGATTGTTCTCCCAGCTGATGAATTCTGTGATTCGAGTAAACAAATTTTCCTAATCTTTCTGTTCAAGCGCCATCTAC” belongs 1.01 RPM ratio (pull-down/input); to “GATGATTGTTCTCCCAGCTGATGAATTTAATCCTTCGAGTAAACAAATTTTCCTAATCTTTCTGTTCAAGCGCCATCTAC”, 0.908 RPM ratio (pull-down/input). As to “GATGATTGTTCTCCCAGCTGATGAATTAAGGTCATCGAGTAAACAAATTTTCCTAATCTTTCTGTTCAAGCGCCATCTAC”, the binding signal is 0.954 RPM ratio (pull-down/input).

In the case of “GATGATTGTTCTCCCAGCTGATGAATTAAAATCCTCGAGTAAACAAATTTTCCTAATCTTTCTGTTCAAGCGCCATCTAC”, the binding signal is 0.808 RPM ratio (pull-down/input). “GATGATTGTTCTCCCAGCTGATGAATTAGCAAGGTCGAGTAAACAAATTTTCCTAATCTTTCTGTTCAAGCGCCATCTAC”: the binding signal was 0.85 RPM ratio (pull-down/input). As to “GATGATTGTTCTCCCAGCTGATGAATTCACGTTTTCGAGTAAACAAATTTTCCTAATCTTTCTGTTCAAGCGCCATCTAC”, the binding signal is 0.926 RPM ratio (pull-down/input). As to “GATGATTGTTCTCCCAGCTGATGAATTCAGTATGTCGAGTAAACAAATTTTCCTAATCTTTCTGTTCAAGCGCCATCTAC”, the binding signal was 0.952 RPM ratio (pull-down/input). To “GATGATTGTTCTCCCAGCTGATGAATTCCTGCGGTCGAGTAAACAAATTTTCCTAATCTTTCTGTTCAAGCGCCATCTAC” belongs 0.751 RPM ratio (pull-down/input); to “GATGATTGTTCTCCCAGCTGATGAATTTCAGCAGTCGAGTAAACAAATTTTCCTAATCTTTCTGTTCAAGCGCCATCTAC”, 0.965 RPM ratio (pull-down/input); to “GATGATTGTTCTCCCAGCTGATGAATTCGATTCGTCGAGTAAACAAATTTTCCTAATCTTTCTGTTCAAGCGCCATCTAC”, 0.905 RPM ratio (pull-down/input).
